Measured values as given in article PMC4336329 (PLoS ONE, 2015).
The campaign covered roughly 310,000 compounds. About 2,200 (0.71%) showed an effect of 50% or more. Effects have a minus sign here. The list shows a part of the results.

biological target: human ether-à-go-go-related gene (hERG) potassium channel (human, UniProt Q12809); experiment: primary screen, population patch clamp on CHO cells stably expressing hERG
Sequence (Q12809 whole entry, looked up): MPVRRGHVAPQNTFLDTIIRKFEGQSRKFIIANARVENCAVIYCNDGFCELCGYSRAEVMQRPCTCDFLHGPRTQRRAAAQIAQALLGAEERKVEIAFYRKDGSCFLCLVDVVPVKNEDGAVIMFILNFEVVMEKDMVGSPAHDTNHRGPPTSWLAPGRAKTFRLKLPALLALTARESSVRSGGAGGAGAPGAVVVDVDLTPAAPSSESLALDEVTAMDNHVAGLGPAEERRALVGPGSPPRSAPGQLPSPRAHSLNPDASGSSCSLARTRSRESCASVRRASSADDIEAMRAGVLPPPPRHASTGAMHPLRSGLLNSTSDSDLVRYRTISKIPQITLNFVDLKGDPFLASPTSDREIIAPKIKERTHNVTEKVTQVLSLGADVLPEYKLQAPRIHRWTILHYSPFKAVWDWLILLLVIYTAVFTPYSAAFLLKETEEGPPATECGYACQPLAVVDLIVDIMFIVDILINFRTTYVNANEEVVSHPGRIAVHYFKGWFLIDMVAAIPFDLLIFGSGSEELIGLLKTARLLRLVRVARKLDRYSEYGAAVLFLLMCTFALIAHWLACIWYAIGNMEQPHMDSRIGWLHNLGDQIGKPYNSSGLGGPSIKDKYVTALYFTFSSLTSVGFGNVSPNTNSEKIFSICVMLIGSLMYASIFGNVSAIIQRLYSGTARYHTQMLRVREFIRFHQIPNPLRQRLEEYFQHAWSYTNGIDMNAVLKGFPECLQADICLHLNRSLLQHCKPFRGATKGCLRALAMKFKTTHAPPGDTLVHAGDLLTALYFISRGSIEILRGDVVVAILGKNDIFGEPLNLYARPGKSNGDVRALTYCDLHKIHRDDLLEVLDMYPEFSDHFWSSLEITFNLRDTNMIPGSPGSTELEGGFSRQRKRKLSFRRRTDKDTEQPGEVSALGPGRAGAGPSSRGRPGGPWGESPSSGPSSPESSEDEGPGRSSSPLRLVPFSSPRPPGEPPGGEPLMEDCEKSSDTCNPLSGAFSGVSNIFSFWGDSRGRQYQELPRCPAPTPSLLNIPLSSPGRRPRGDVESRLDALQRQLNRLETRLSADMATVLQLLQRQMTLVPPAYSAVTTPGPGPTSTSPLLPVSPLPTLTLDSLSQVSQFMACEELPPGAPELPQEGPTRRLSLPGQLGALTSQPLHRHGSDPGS

In order of rising “hERG current change (%, negative = inhibition) at 1uM” value:
1. O=C(NCCCn1ccnc1)c1ccc(N2CCCCC2)c([N+](=O)[O-])c1  -54.1%
2. CCNc1nc2nc3ccc(C)cn3c(=O)c2cc1C(=O)NCC1CCCO1 (centres unmarked)  -31.2%
3. O=C(CCN1C(=O)c2ccccc2S1(=O)=O)N1CCN(c2ccc(F)cc2)CC1  -27.1%
4. C/C=C/c1ccc(OCC(O)CN(C)Cc2ccc(SC)cc2)c(OC)c1.O=C(O)C(=O)O (centres unmarked)  -25.4%
5. Cc1ccccc1NC(=S)N1CCC(C(=O)c2ccc(F)cc2)CC1  -25.1%
6. CCOC(=O)c1cccc(N2C(=O)c3ccccc3S2(=O)=O)c1  -24.4%
7. O=C(Nc1ccc(F)cc1)c1cccc2c1C(=O)N(Cc1ccccn1)C2  -17.6%
8. COc1cc(/C=N/O)ccc1Oc1ccc([N+](=O)[O-])cc1[N+](=O)[O-]  -16.7%
9. COc1ccc(NC(=O)C2CCN(C(=O)NCc3ccccc3)CC2)cc1  -10.2%
10. CCOC(=O)CNC(=O)CSc1ncnc2c1cnn2-c1ccccc1  -6.16%
11. Cc1ccccc1NC1=NCC(c2ccc([N+](=O)[O-])cc2)S1 (centres unmarked)  -5.3%
12. CCN(CC)S(=O)(=O)c1ccc(C(=O)NNC(=O)c2cccs2)cc1  -5.18%
13. Cc1ccc(Cl)cc1N1CCN(S(=O)(=O)c2c(C(=O)N3CCOCC3)c(C)n(C)c2C)CC1  -4.41%
14. CCCOc1ccc(N2CC(C(=O)NC(C)C)CC2=O)cc1 (centres unmarked)  -4.12%
15. CC(=O)N/C(=C/c1ccc(Cl)cc1)C(=O)NCCc1c[nH]c2ccccc12  -3.7%
16. S=c1[nH]nc(CN2CCCC2)n1Cc1ccccc1  -3.66%
17. COc1ccc(OCCOc2ccc(S(=O)(=O)N3CCCC3)cc2C(N)=O)cc1  -3%
18. CC1CCN(CCCNC(=O)c2ccc3c(Cl)c4c(nc3c2)CCCC4)CC1  -2.53%
19. CC(C)CCn1c(COc2ccccc2)nn(CCC#N)c1=S  -1.61%
20. COc1ccc(Cl)cc1C(=O)OCC(=O)N(C)CC(=O)Nc1ccc(F)cc1  0.0097%
21. O=C(c1cccc(Oc2ccc([N+](=O)[O-])cc2Cl)c1)N1CCOCC1  0.772%
22. COc1ccc([C@H]2/C=C\CN(C(=O)C3CC3)[C@@H](C)C(=O)N2Cc2ccc(F)cc2)cc1  1.06%
23. Cc1ccc(C(=O)N(C)Cc2ccc(N3CCOCC3)cc2)cc1S(=O)(=O)NCc1ccccc1  1.2%
24. O=C(COC(=O)c1cccc(S(=O)(=O)N2CCN(c3ccccc3)CC2)c1)NCc1ccco1  1.45%
25. COCCCn1c(SCC(=O)N2CCc3ccccc32)nnc1-c1ccco1  1.5%
26. O=C(COC(=O)CNC(=O)C1CCCCC1)NCc1ccccc1  1.68%
27. COC(=O)c1cn(NC(=O)CCC2CCCC2)c(=O)c2ccccc12  1.9%
28. Cc1ncsc1CCC(=O)N1CCCC(C(=O)c2ccc3c(c2)OCO3)C1 (centres unmarked)  1.98%
29. CCOC(=O)CSc1nc2sc(C)c(C)c2c(=O)n1C  2.14%
30. CCOc1cc2c(cc1OCC)-n1cccc1C(c1ccc(F)cc1)NC2.Cl (centres unmarked)  2.16%
31. O=C1CCc2cc(S(=O)(=O)NCc3ccc(F)cc3)cc3c2N1CCC3  2.52%
32. COc1ccc(S(=O)(=O)N2CCCCCC2)cc1C(=O)N(C)CCOc1ccc(Cl)cc1  2.56%
33. C=CCSc1n[nH]c(-c2ccc(OCCCC)cc2)n1  2.58%
34. COC(=O)CN(c1ccccc1)S(=O)(=O)c1ccccc1  2.9%
35. COc1cccc(CNC(=O)CN2c3cccc4cccc(c34)S2(=O)=O)c1  2.9%
36. CCOc1ccccc1NC(=O)CSc1nnnn1C1CCCC1  2.98%
37. FC(F)(F)c1n[nH]c(=S)n1/N=C/c1ccco1  3.81%
38. COc1ccc(/C(N)=N/OC(=O)CCc2ccccc2)cc1  4.26%
39. CCCOc1ccc(NC(=O)CC2C(=O)N(CC)C(=S)N2CCNC(C)=O)cc1 (centres unmarked)  4.54%
40. CC(C)CN(C(=O)CC1OC(=O)c2ccccc21)c1c(N)n(Cc2ccccc2)c(=O)[nH]c1=O (centres unmarked)  4.83%
41. CCOc1ccc(NC(=O)CN(C)c2ccc(S(=O)(=O)N(C(C)C)C(C)C)cn2)cc1OCC  4.93%
42. Cc1ccc(S(=O)(=O)c2cc3cc(Br)ccc3oc2=O)cc1  5.4%
43. CCOc1ccc(NC(=O)CSc2ncn[nH]2)cc1  5.56%
44. N#Cc1ccc(OCC(=O)Nc2ccc3[nH]c(=O)[nH]c3c2)cc1  5.61%
45. c1ccc2c(c1)[nH]c1c(N3CCCC3)ncnc12  5.61%
46. CCn1c(SCC(=O)N2CCCc3ccccc32)nnc1-c1ccoc1C  5.63%
47. O=c1c2ccccc2nc(SCC2CCCCO2)n1-c1ccccc1 (centres unmarked)  5.87%
48. COC(=O)CSc1ccsc1C(=O)O  6.32%
49. COC(=O)c1[nH]c2ccccc2c1NC(=O)c1ccccc1[N+](=O)[O-]  6.34%
50. CS/C(=N\S(=O)(=O)c1cccs1)Nc1ccc(F)cc1  7.36%
51. CCOC(=O)c1sc(NC(=O)c2c(OC)cccc2OC)nc1C  7.46%
52. CCCCC(=O)Nc1nc2c(OC)cc([N+](=O)[O-])cc2s1  7.5%
53. O=C(CSc1nnc(Cc2ccccc2)o1)NCCc1ccccc1  7.62%
54. CC1CCCCC1NC(=O)COC(=O)CNC(=O)c1cccc(F)c1 (centres unmarked)  8.09%
55. COc1ccccc1C(=O)NC(=O)CSc1nnc(SC)s1  8.29%
56. CCC(=O)N1N=C(c2ccc(Cl)cc2)CC1c1ccco1 (centres unmarked)  8.31%
57. CC(C)Cn1c(-c2ccccc2F)n[nH]c1=S  8.34%
58. CC1CCC(NC(=O)CSc2nnnn2C)CC1 (centres unmarked)  8.39%
59. COc1ccc(CNC(=O)C(C)N2CCN(S(=O)(=O)c3ccccc3F)CC2)cc1 (centres unmarked)  8.52%
60. CC(C)CNC(=O)c1cccc(NC(=O)c2ccco2)c1  8.63%
61. CCOc1ccc([C@@H]2CC=C(C(=O)O)[C@H](c3cccc(Cl)c3)N2S(=O)(=O)c2ccc(C)cc2)cc1  8.8%
62. CNC(=O)CSc1nnc(-c2cccs2)o1  9.39%
63. CCOC(=O)C1(CCOc2ccccc2)CCN(S(=O)(=O)N(C)C)CC1  9.42%
64. CCOC(=O)c1cc2occc2n1CC(=O)Nc1ccc(OC)cc1OC  9.65%
65. CCS(=O)(=O)Nc1cc(-c2nc3cccnc3s2)ccc1C  9.93%
66. CCc1ccc(/C=C2/C(=O)N(c3ccccc3)C(=S)N2CC(=O)OC)s1  10.6%
67. O=C(CNC(=O)c1ccco1)OCC(=O)c1ccc(Cl)cc1Cl  11.1%
68. CN(CCC#N)C(=O)CSc1ncnc2sc(-c3ccccc3)cc12  11.4%
69. CC(C)CC(=O)Nc1ccc2c(c1)oc1ccccc12  12%
70. CN(C)/C=C1\SC(=S)N(c2ccc(F)cc2)C1=O  12.2%
71. CN1CCN(C(=O)c2ccc3c(c2)N(Cc2cccc(Cl)c2)C(=O)c2ccccc2S3(=O)=O)CC1  12.3%
72. C/C(CC(=O)Nc1ccc(C)c(Cl)c1)=N\NC(=O)C1CCCCC1  12.4%
73. COc1cccc(COC(=O)C2CCN(C(=O)c3ccc(F)cc3)CC2)c1OC  12.5%
74. COc1cccc(CNC(=O)Nc2cccs2)c1  12.5%
75. COCCn1cnc2c(c1=O)c1nc3ccccc3nc1n2/N=C/c1ccc(OC)c(OC)c1  12.9%
76. COc1cccc(C(=O)COC(=O)c2ccc(NC(C)=O)cc2)c1  13.1%
77. O=C(CN1C(=O)NC2(CCCCC2)C1=O)NNC(=O)C1CC1  13.3%
78. Fc1ccccc1-c1nc(N2CCCCC2)c2ccccc2n1  13.4%
79. COc1ccc(C(=O)Cn2cnc3ccc(Cl)cc3c2=O)cc1F  13.8%
80. COc1ccc(C(CNC(=O)Cn2c(=O)oc3ccccc32)N(C)C)cc1 (centres unmarked)  14.2%
81. COc1cc(CNc2nc(C)c([N+](=O)[O-])c(C)c2C#N)cc(OC)c1  14.2%
82. Cc1cccc(C)c1-n1ncc(C(=O)NC2CCCC2)c1C1CCNCC1  15.2%
83. COC(=O)c1ccc(/C=N\N2CCN(c3ccccc3)CC2)cc1  16.1%
84. COc1ccc(-n2nc(C(=O)NCC(=O)N3CCC(C)CC3)c3ccccc3c2=O)cc1  16.3%
85. Cc1ccccc1NC(=O)C1CCC(C)(C(=O)O)C1(C)C (centres unmarked)  16.3%
86. CC(C)(C)c1cc(NCc2ccccn2)n2ncc(-c3ccc(Cl)cc3)c2n1  17.4%
87. COc1cc2[nH]c(-c3cccc(F)c3)cc(=O)c2cc1OC  18.3%
88. O=C(NCc1cccnc1)NC1(c2ccccc2)CC1  19.7%
89. CC(=O)c1c(C)[nH]c(C(=O)CN2C(=O)NC(C)(c3ccc(C)cc3)C2=O)c1C (centres unmarked)  23.5%
